Among all 310,000 compounds or so, about 14,000 (4.5%) showed an effect of 50% or more. Effects have a minus sign here. The list shows a part of the results.
The compounds below were run against human ether-à-go-go-related gene (hERG) potassium channel (human, UniProt Q12809) (assay: primary screen, population patch clamp on CHO cells stably expressing hERG).
Chain of human ether-à-go-go-related gene (hERG) potassium channel (Q12809 whole entry, looked up): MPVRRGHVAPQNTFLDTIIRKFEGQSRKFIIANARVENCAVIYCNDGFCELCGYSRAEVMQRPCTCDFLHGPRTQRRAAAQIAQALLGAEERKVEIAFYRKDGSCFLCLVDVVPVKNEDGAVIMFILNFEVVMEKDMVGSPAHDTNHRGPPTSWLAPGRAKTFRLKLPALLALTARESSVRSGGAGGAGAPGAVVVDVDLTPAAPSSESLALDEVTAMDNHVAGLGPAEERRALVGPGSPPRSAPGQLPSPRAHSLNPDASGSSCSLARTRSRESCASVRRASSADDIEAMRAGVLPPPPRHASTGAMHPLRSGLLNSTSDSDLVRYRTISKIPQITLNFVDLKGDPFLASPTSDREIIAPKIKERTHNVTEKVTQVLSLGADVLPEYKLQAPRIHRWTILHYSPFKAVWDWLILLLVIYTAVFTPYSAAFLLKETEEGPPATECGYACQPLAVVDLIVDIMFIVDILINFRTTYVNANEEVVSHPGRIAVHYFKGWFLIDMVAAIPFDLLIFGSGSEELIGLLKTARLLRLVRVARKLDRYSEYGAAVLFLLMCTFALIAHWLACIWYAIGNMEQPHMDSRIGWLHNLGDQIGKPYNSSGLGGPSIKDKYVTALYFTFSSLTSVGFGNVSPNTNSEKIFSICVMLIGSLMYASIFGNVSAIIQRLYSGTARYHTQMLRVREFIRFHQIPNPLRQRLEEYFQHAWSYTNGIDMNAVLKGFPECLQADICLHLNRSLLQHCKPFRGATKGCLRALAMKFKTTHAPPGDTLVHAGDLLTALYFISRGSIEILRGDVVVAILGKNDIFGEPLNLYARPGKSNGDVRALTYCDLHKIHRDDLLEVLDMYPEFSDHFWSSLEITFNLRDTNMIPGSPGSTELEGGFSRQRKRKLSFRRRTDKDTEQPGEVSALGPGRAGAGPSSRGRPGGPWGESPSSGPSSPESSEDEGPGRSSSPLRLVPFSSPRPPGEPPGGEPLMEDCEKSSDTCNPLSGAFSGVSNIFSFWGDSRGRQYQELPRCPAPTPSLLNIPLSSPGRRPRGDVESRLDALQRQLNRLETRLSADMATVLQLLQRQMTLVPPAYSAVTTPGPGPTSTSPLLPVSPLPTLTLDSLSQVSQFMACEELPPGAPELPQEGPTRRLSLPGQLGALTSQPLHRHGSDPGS
For `CCCSc1nnc2n(-c3ccccc3OC)c(=O)c3c4c(sc3n12)CCC4`, the “hERG current change (%, negative = inhibition) at 10uM” value was -56.8%.
With `CCOC(=O)c1cccc(N2C(=O)C3C4C=CC(CC4)C3C2=O)c1` (stereo not shown) the “hERG current change (%, negative = inhibition) at 10uM” value was 2.85%.
With `O=C(Nc1nnc(SCc2ccc(F)cc2)s1)c1ccco1` the “hERG current change (%, negative = inhibition) at 10uM” value was 14.1%.
In the case of `Cc1nn(C)c(Sc2ccccn2)c1[N+](=O)[O-]`, the “hERG current change (%, negative = inhibition) at 10uM” value was 9.22%.
In the case of `Cc1nc2c3ccccc3nc(NNC(=O)CCC(=O)N3CCN(c4ccc(F)cc4)CC3)n2n1`, the “hERG current change (%, negative = inhibition) at 10uM” value was -53.2%.
`Cl.Clc1ccc2[nH]c3c(c2c1)CCNC3` was tested, and the “hERG current change (%, negative = inhibition) at 10uM” value was 5.7%.
With `CCOC(=O)C1=C(COC(=O)Cc2ccc(Br)cc2)NC(=O)NC1C` (stereo not shown) the “hERG current change (%, negative = inhibition) at 10uM” value was 1.41%.
With `CC(=O)NC(CC(=O)Nc1ccc(S(=O)(=O)N2CCCCC2)cc1)c1ccccc1` (stereo not shown) the “hERG current change (%, negative = inhibition) at 10uM” value was -6.14%.
With `O=C(CSc1nnc(NC(=O)C2CC2)s1)NCc1ccc(F)cc1` the “hERG current change (%, negative = inhibition) at 10uM” value was 33.3%.
In the case of `COc1cccc(Cn2cc(-c3cccc(C(F)(F)F)c3)nn2)c1`, the “hERG current change (%, negative = inhibition) at 10uM” value was -0.656%.
In the case of `COc1ccc(C2=NN(c3ccccc3)C(=O)/C2=C\c2ccc(O)c(OC)c2)cc1`, the “hERG current change (%, negative = inhibition) at 10uM” value was 14.2%.
With `CC(C)(C)c1ccc(/C=C(\C#N)C(=O)NC2CC2)cc1` the “hERG current change (%, negative = inhibition) at 10uM” value was 12.3%.
With `C/C(=N/OCc1ccc(Br)cc1)c1ccccn1` the “hERG current change (%, negative = inhibition) at 10uM” value was 6.29%.
In the case of `CN1CCC(N(C)C(=O)NC2CCCCC2)CC1`, the “hERG current change (%, negative = inhibition) at 10uM” value was 14%.
With `CCCn1c(C)cc(C)c(C#N)c1=O` the “hERG current change (%, negative = inhibition) at 10uM” value was 15.7%.
With `O=c1[nH]c(CNCc2cccnc2)nc2ccccc12` the “hERG current change (%, negative = inhibition) at 10uM” value was -3.54%.
`COCCn1c(-c2ccccc2)cnc1SCC(=O)Nc1cccc2ccccc12` was tested, and the “hERG current change (%, negative = inhibition) at 10uM” value was -26.8%.
With `Cc1cc2c(ncn2C(C)C)c(NS(=O)(=O)c2ccc(F)cc2)c1C` the “hERG current change (%, negative = inhibition) at 10uM” value was -7.73%.
`Cc1ccc(-c2noc(CCC(=O)Nc3ccccc3N3CCN(C)CC3)n2)cc1` was tested, and the “hERG current change (%, negative = inhibition) at 10uM” value was -33.7%.
For `COCCN(C(=O)COC(=O)C1(c2ccccc2)CC1)c1c(N)n(CC(C)C)c(=O)[nH]c1=O`, the “hERG current change (%, negative = inhibition) at 10uM” value was -0.229%.
With `Cc1ccc(C(=O)NN2C(=O)/C(=C/c3cccn3C)SC2=S)cc1` the “hERG current change (%, negative = inhibition) at 10uM” value was 1.21%.
For `N#CC1(C#N)C(c2ccccc2)OC23CCCCC2C1(C#N)C(=N)O3` (stereo not shown), the “hERG current change (%, negative = inhibition) at 10uM” value was -7.43%.
For `Cc1cc(N2CCN(Cc3ccc4c(c3)OCO4)CC2)n2ncnc2n1`, the “hERG current change (%, negative = inhibition) at 10uM” value was 7.64%.
With `CCC(C)(C)c1nnc(NC(=O)C2CCN(C(=O)c3ccco3)CC2)s1` the “hERG current change (%, negative = inhibition) at 10uM” value was 11.2%.
`O=C([O-])/C=C1\CCCc2ccccc2C1O.[Na+]` (stereo not shown) was tested, and the “hERG current change (%, negative = inhibition) at 10uM” value was 18.4%.

From article PMC4336329 (PLoS ONE, 2015)
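Note: peak tail current of the secondary pulse compared with the same well before compound.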
